# Some of the results follow.
# B1: PhoQ; a variant is named by its letters at X, in order, P23837 (parent)
# chain: MKKLLRLFFPLSLRVRFLLATAAVVLVLSLAYGMVALIGYSVSFDKTTFRLLRGESNLFYTLAKWENNKLHVELPENIDKQSPTMTLIYDENGQLLWAQRDVPWLMKMIQPDWLKSNGFHEIEADVNDTSLLLSGDHSIQQQLQEVREDDDDAEMTHSVAVNVYPATSRMPKLTIVVVDTIPVELKSSYMVWSWFIYVLSANLLLVIPLLWVAAWWSLRPIEALAKEVRELEEHNRELLNPATTRELTSLVRNLNRLLKSERERYDKYRTTLTDLTHSLKTPLXXLQXXLRSLRSEKMSVSDAEPVMLEQISRISQQIGYYLHRASMRGGTLLSRELHPVAPLLDNLTSALNKVYQRKGVNISLDISPEISFVGEQNDFVEVMGNVLDNACKYCLEFVEISARQTDEHLYIVVEDDGPGIPLSKREVIFDRGQRVDTLRPGQGVGLAVAREITEQYEGKIVAGESMLGGARMEVIFGRQHSAPKDE
# Variants of: B1
# Assay: enrichment ratio after two sorts for PhoP signalling (ratio (wild type AVST 3.29)); higher = more functional
# Details: with PhoP (E. coli)
row,Variant,enrichment ratio
1,SYHK,≤ 0.25
2,TTDL,6.94
3,MEKV,≤ 0.25
4,FATG,≤ 0.25
5,IWLM,≤ 0.25
6,LITQ,≤ 0.25
7,EGSR,≤ 0.25
8,FNPT,≤ 0.25
9,HPVY,≤ 0.25
10,VDDK,≤ 0.25
11,QYLP,≤ 0.25
12,DACL,≤ 0.25
13,SAVL,9.41
14,FCID,≤ 0.25
15,ERSY,≤ 0.25
16,QMYD,≤ 0.25
17,DHTI,≤ 0.25
18,VVWF,≤ 0.25
19,PLLD,≤ 0.25
20,SYAM,≤ 0.25
21,EDDR,≤ 0.25
22,FYIE,≤ 0.25
23,PDAN,≤ 0.25
24,DHLK,≤ 0.25
25,FYVI,≤ 0.25
26,PMEM,≤ 0.25

row,Variant,enrichment ratio
1,VPSI,≤ 0.25
2,QVIH,≤ 0.25
3,IGRY,≤ 0.25
4,TLMN,≤ 0.25
5,ICCQ,≤ 0.25
6,MECA,3
7,TRGW,≤ 0.25
8,MGLV,15.2
9,GQWY,≤ 0.25
10,KYQL,≤ 0.25
11,RYHM,≤ 0.25
12,SKWY,≤ 0.25
13,IGSQ,≤ 0.25
14,SLDD,≤ 0.25
15,AKHP,≤ 0.25
16,DYDM,≤ 0.25
17,GHRC,≤ 0.25
18,DIVF,≤ 0.25
19,IMER,≤ 0.25
20,WPVD,≤ 0.25
21,FMNP,≤ 0.25
22,MIEF,≤ 0.25
23,ESEM,≤ 0.25
24,VNRY,≤ 0.25
25,HCYF,≤ 0.25
26,LSYL,11.2

row,Variant,enrichment ratio
1,HSYR,≤ 0.25
2,DKGL,≤ 0.25
3,IYPK,≤ 0.25
4,WQLN,≤ 0.25
5,YTYL,≤ 0.25
6,PKVY,≤ 0.25
7,RGNS,≤ 0.25
8,WNES,≤ 0.25
9,ACNF,≤ 0.25
10,LGFY,3.82
11,VDWC,≤ 0.25
12,RAFV,≤ 0.25
13,RNNY,≤ 0.25
14,NLIS,≤ 0.25
15,GIRG,≤ 0.25
16,TDPH,≤ 0.25
17,TALG,9.94
18,PMLP,≤ 0.25
19,DLAT,≤ 0.25
20,KYLN,≤ 0.25
21,FHAK,≤ 0.25
22,YSPC,≤ 0.25
23,NNPN,≤ 0.25
24,EHDM,≤ 0.25
25,AWIK,≤ 0.25
26,LSMN,≤ 0.25

row,Variant,enrichment ratio
1,WVIA,≤ 0.25
2,LTGK,≤ 0.25
3,KNYY,≤ 0.25
4,LLYT,≤ 0.25
5,LPSA,≤ 0.25
6,EINM,≤ 0.25
7,MRIP,≤ 0.25
8,EDGD,≤ 0.25
9,GMTM,≤ 0.25
10,YYCY,≤ 0.25
11,LCIH,≤ 0.25
12,FQEW,≤ 0.25
13,FALN,6.83
14,VFHK,≤ 0.25
15,YLRV,≤ 0.25
16,TFHQ,≤ 0.25
17,HKCV,≤ 0.25
18,SSYQ,0.409
19,NPFP,≤ 0.25
20,TIDP,≤ 0.25
21,QLMP,≤ 0.25
22,WLWK,≤ 0.25
23,PALM,≤ 0.25
24,YPNH,≤ 0.25
25,YQRR,≤ 0.25
26,FIPL,≤ 0.25

row,Variant,enrichment ratio
1,GVMG,≤ 0.25
2,LSRS,≤ 0.25
3,LKFQ,≤ 0.25
4,RLNS,≤ 0.25
5,FHRQ,≤ 0.25
6,YCSN,≤ 0.25
7,QGWT,36
8,NFAK,≤ 0.25
9,FNKT,≤ 0.25
10,SVKT,≤ 0.25
11,LNNN,≤ 0.25
12,WFVC,≤ 0.25
13,LAMD,≤ 0.25
14,YEKR,≤ 0.25
15,QFHC,≤ 0.25
16,RHVH,≤ 0.25
17,TCRD,≤ 0.25
18,HYKN,≤ 0.25
19,AHAA,≤ 0.25
20,NHQV,≤ 0.25
21,DGKG,≤ 0.25
22,HTAS,≤ 0.25
23,ITTC,≤ 0.25
24,MMSS,≤ 0.25
25,EYVV,≤ 0.25
26,VELK,≤ 0.25

row,Variant,enrichment ratio
1,AEWG,0.38
2,FVSD,≤ 0.25
3,WNSH,≤ 0.25
4,GGIH,≤ 0.25
5,YSWY,≤ 0.25
6,QVKS,≤ 0.25
7,WMSK,≤ 0.25
8,FSCY,≤ 0.25
9,FAIW,≤ 0.25
10,IIGP,≤ 0.25
11,HWCW,≤ 0.25
12,HDRI,≤ 0.25
13,TTTD,≤ 0.25
14,AKPD,≤ 0.25
15,TDIV,2.94
16,WMMI,≤ 0.25
17,GWRV,≤ 0.25
18,MVVM,≤ 0.25
19,HKLQ,≤ 0.25
20,RMVI,≤ 0.25
21,MCGC,≤ 0.25
22,MIGL,1.45
23,EYMG,≤ 0.25
